Assay results reported in the supplement of paper PMC3334620.
In all, about 33,000 sequences were measured (“E-score (-0.5 to 0.5)”: median about -0.054, highest 2% from about 0.39 on). The list shows a part of the results.

Biological target: Ylr278c (UniProt Q05854)
Test: PBM E-score (8-mer binding enrichment) (E-score (-0.5 to 0.5)); higher = stronger / more preferred TF binding; most listed sequences are background and not binding sites
Conditions: protein concentration: 200 nM; construct: GST-DNA-binding domain
Outline: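 The E-score, a modified Wilcoxon-Mann-Whitney statistic, was computed by the Universal PBM Analysis Suite for every ungapped eight-base word pooled with its reverse complement. Scans behind it were normalised with masliner after bound GST-tagged yeast transcription factors were detected with fluorescent anti-GST. The proteins, at about 100-200 nM, had been applied to universal all-10-mer Agilent arrays made double-stranded by primer extension.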

Row | Sequence | PBM E-score
1 | GCTGGTAC | 0.00772
2 | CCACGCCA | -0.347
3 | GTCGTAGA | -0.127
4 | AGCCCCCT | -0.299
5 | ACGCAGTA | -0.0608
6 | GGATGTCA | 0.129
7 | CTCTGCTA | -0.128
8 | CCGTGAGA | 0.0791
9 | CACGTTTC | 0.0398
10 | ATCACTGG | -0.176
11 | ATGCTCAA | -0.0531
12 | ATCTTGCG | 0.107
13 | GGACACAA | 0.124
14 | CAGTCGCG | -0.0179
15 | CATCATAG | -0.0591
16 | CCTACCAC | -0.19
17 | ATAGCGGG | 0.0855
18 | ATTCCGAA | 0.456
19 | CCCTATCG | -0.117
20 | ATGGGAAC | -0.116
21 | ACTTAGTC | -0.126
22 | TCTAGCAA | -0.0561
23 | CGTCCTTC | 0.0799
24 | CGTATAGA | -0.153
25 | AGAAAGGC | -0.0463

Row | Sequence | PBM E-score
26 | GCATCTAA | 0.106
27 | CACGGAAC | 0.276
28 | ACTTAAAT | -0.129
29 | ACTGTAAG | 0.0137
30 | TATAGTGA | -0.263
31 | TCGTAGCA | -0.109
32 | GTGTTAAC | -0.21
33 | CGCCCACC | 0.0265
34 | GGAGAGAC | 0.201
35 | AGCTTGTA | -0.263
36 | GCCCTACA | -0.0147
37 | ACTTAGAC | -0.14
38 | ATAAAGAT | -0.0953
39 | CATGCGGG | 0.0357
40 | CAAGCGTC | -0.121
41 | AGGCGGGA | 0.136
42 | ATGGCTAC | -0.185
43 | GAGACATC | -0.0277
44 | GACTACTA | -0.0974
45 | CTATAAGC | -0.0751
46 | AAGAAAAT | 0.0515
47 | CAGGTACG | -0.123
48 | CGCAATCA | 0.124
49 | GCGCGGAA | 0.387
50 | CAGGTGTA | -0.197

Row | Sequence | PBM E-score
51 | GCTGCGTA | -0.264
52 | GTCCAATA | 0.106
53 | GAAGGGCC | -0.103
54 | GAGACGCA | 0.0249
55 | CAGTGAAC | -0.136
56 | GTAACCAA | -0.00064
57 | ACTTTCAA | 0.0431
58 | GATAAGAC | 0.0109
59 | GCCTGCGC | -0.00627
60 | ACACCGGA | 0.416
61 | GACGTAAA | 0.1
62 | AGTACCTG | -0.251
63 | CCATTCTA | -0.0579
64 | ACTTCGTG | -0.225
65 | CGAAAATC | 0.0899
66 | TATCGTCA | -0.218
67 | ACGCGGCT | 0.0317
68 | AGCTACAT | -0.239
69 | CGAGATCA | 0.013
70 | CCACTCCA | -0.0346
71 | CATTGCCA | -0.0974
72 | TCAAGCAA | -0.068
73 | AGCCGACG | 0.266
74 | CTTCGGGA | 0.195
75 | CCGCGTGA | 0.226

Row | Sequence | PBM E-score
76 | CCATAGTC | -0.0926
77 | GAATGGTC | 0.0638
78 | ACAATGGT | -0.255
79 | AAGCGATT | -0.139
80 | AACCCCAA | 0.0839
81 | ATTCCAGG | -0.0513
82 | ACCTGTAC | -0.161
83 | AGACCTCG | -0.139
84 | CCCGTCCA | 0.0374
85 | GATAAGTA | 0.0578
86 | GATCCGCA | 0.273
87 | CCCGCATC | 0.0872
88 | CGAACGAC | 0.0861
89 | CCTGACAA | -0.202
90 | TACGGCAA | 0.129
91 | AGGCTGTC | -0.147
92 | CCAGGGTC | -0.158
93 | GCCGGAAC | 0.432
94 | ACATTTCA | 0.00316
95 | ATAGTTCA | -0.103
96 | ATAATGCA | -0.276
97 | AATCCCGA | 0.42
98 | ACACCCGG | 0.294
99 | AGTTGCAT | -0.0017
100 | ACAGCAAA | -0.115

Row | Sequence | PBM E-score
101 | CGTGGAAA | 0.193
102 | AGAGCATA | -0.162
103 | CGCAGCAC | -0.0197
104 | AATATGGG | -0.259
105 | CTTGCTCA | -0.0969
106 | ACATACAT | -0.0377
107 | ATTCTTGC | 0.00795
108 | GCTCGGAC | 0.382
109 | CGTCTGCC | 0.0806
110 | GTCCACAC | 0.0892
111 | GATATATC | 0.137
112 | ACTGAGTA | -0.295
113 | CTGGAATA | -0.00539
114 | AAGACCAG | -0.0179
115 | AACTACGC | 0.15
116 | CGTTTAGA | -0.0047
117 | GAGCGCCA | 0.0167
118 | GTAGCAAC | -0.0765
119 | CACGTTGG | -0.266
120 | ACGGCGCG | 0.226
121 | ACTCCATA | -0.0745
122 | CGTCGACC | -0.067
123 | ATAGCCGC | 0.175
124 | CACCGCAG | 0.104
125 | AACAGGCA | -0.192

Row | Sequence | PBM E-score
126 | GTCACCCA | -0.109
127 | CTTACACA | -0.148
128 | AAGAAAAC | 0.0482
129 | ATATCGAA | 0.027
130 | ATACGGAC | 0.242
131 | ACGATCTC | -0.0738
132 | AAGGTTCT | -0.0412
133 | CCTGGTTC | 0.106
134 | CTATGTCC | 0.163
135 | ACCCACAG | -0.375
136 | CGCGAATA | 0.172
137 | CAGAAATC | -0.0409
138 | CAGACGTC | -0.205
139 | CCGTGAAC | 0.163
140 | CGATTTTA | 0.0784
141 | CAGCGGGA | 0.0661
142 | AGAAAATC | 0.162
143 | ACGATTTC | 0.033
144 | AGATCGAT | -0.0782
145 | ACACACCG | 0.0986
146 | AGTCTCTG | -0.225
147 | ATCAAGTC | -0.138
148 | GCCGCAAA | 0.18
149 | ACCCTAAA | 0.099
150 | TATTAGAA | -0.0213

Row | Sequence | PBM E-score
151 | AGGAAAAA | -0.148
152 | CCCATGGG | 0.0687
153 | GTATACTA | -0.186
154 | ACCATGGG | -0.158
155 | GCAGGTAC | -0.107
156 | CGTAATGC | 0.0396
157 | AATACCTA | -0.155
158 | TCAAGAAA | 0.0296
159 | AGAAGCAT | -0.11
160 | ATGCTACC | 0.0654
161 | CGCTACAG | -0.103
162 | AAAGCGAT | 0.0361
163 | CAAGACGC | 0.107
164 | GGAAAAAA | 0.247
165 | ATTCGATA | -0.0972
166 | GAGAAAAA | 0.199
167 | CACCAAGG | -0.0697
168 | TCCGGTAA | 0.44
169 | GCGGTGGA | 0.107
170 | AGGCGGAT | 0.237
171 | CCTTACTC | 0.126
172 | ATTGCGAC | 0.15
173 | CACTTCTC | -0.0425
174 | CGGCTGAG | 0.0595
175 | CTCCCGAG | -0.0619

Row | Sequence | PBM E-score
176 | CGAGTGCA | 0.0654
177 | AGCTTATC | 0.0115
178 | CTCGTAAG | 0.0182
179 | GCATGTAC | -0.133
180 | GGTGAGCA | -0.141
181 | CATAGCAA | -0.22
182 | ATATTAAA | 0.0784
183 | CTTTACGA | -0.214
184 | CGGTACCA | 0.115
185 | AAAAAGGA | -0.0903
186 | TGTTAAAA | -0.186
187 | CCTGAAGC | -0.291
188 | ACGCAGGC | -0.0932
189 | AAGTCCTG | -0.106
190 | TAAGGTGA | -0.147
191 | CGAAGTAG | 0.0632
192 | CCTAGGCA | -0.106
193 | ACGTTAGC | -0.0336
194 | ATGTACTG | -0.0707
195 | CAGTAAAC | 0.0397
196 | CTCAGGTA | -0.236
197 | ACGGCTCC | 0.2
198 | ATTAATAC | 0.1
199 | ACAACGAC | 0.0542
200 | GAGGCCTC | 0.0403

Row | Sequence | PBM E-score
201 | AGTAAAGA | 0.0362
202 | AATTTATC | 0.122
203 | ACCTGGAC | -0.174
204 | CTAGATAC | -0.0911
205 | AATCGGAG | 0.466
206 | CAAGACAA | -0.0931
207 | AAAACTAT | -0.0196
208 | TGCTCCCA | -0.175
209 | GGGTGCCA | -0.0219
210 | CTAGGTCC | 0.138
211 | AGCCACCG | 0.126
212 | GAACACCC | 0.014
213 | GCGACAGA | 0.12
214 | AGGTAAAA | -0.0726
215 | TTGTACAA | -0.139
216 | GCAGCTGA | -0.0542
217 | AATCTTTG | -0.0854
218 | CTACAAAA | 0.119
219 | GATTCCCC | 0.22
